The source gives no read counts; variants with many changes may rest on few reads.
B1: LINE1-mini (parent)
chain: GGCAGAGCUCAACACAGCGUGGCAAAGUGGCUGUGGCUAGACUGCC

Variants of: B1
Assay: self-cleavage, relative activity (ratio to wild type); higher = more cleavage; in vitro, sequencing; the parent is a self-cleaving ribozyme

| Variant | self-cleavage |
| --- | --- |
| U9G A25G G36A | 0.1 |
| U9C U38G C42G | 0.02 |
| U9G C10A C13A G30U G44C | 0.06 |
| U9G C15U G35U A41U C42U | 0.13 |
| U9G A14U C23A C42U | 0 |
| U9G A16U U20C | 0.02 |
| U9G A11U U20C A25G G30C | 0.01 |
| U9G C23A C45U | 0.05 |
| U9G C10U A26U | 0.07 |
| U9G C13U C31G A41U | 0.11 |
| U9G C10G C13G U32C C45A | 0.01 |
| U9G A41C C46A | 0.06 |
| U9G A24G U32C | 0.04 |
| U9G A14C C15G | 0.02 |
| U9G A14G G21A G35U | 0.02 |
| U9G A12C G33A U38A A41G | 0.01 |
| U9G C23U G33A C45U | 0.02 |
| U9G C15A G17C G27A | 0.01 |
| U9G A12G G21A | 0.01 |
| U9G A12G C15G C23U U28C | 0.02 |
| U9G A11U C23G C31U A39U | 0 |
| U9G C15A G21U G30U C31G U34C C45G | 0.01 |
| U9G A12G C23A | 0.01 |
| U9G C13U A26G | 0.27 |

| Variant | self-cleavage |
| --- | --- |
| U9G A16U U32G C45U | 0.07 |
| U9C G33C G40C | 0.02 |
| U9G C18U G36A | 0.2 |
| U9G A12U G40C A41C | 0.02 |
| U9G C10U G30A A41C | 0 |
| U9C G35A U43A | 0.01 |
| U9G C13A G17U G27C G33A G35U A39U | 0.04 |
| U9G A12G C13A G29U C46U | 0.02 |
| U9G A12C C13A C46A | 0.01 |
| U9C U38G C46G | 0.01 |
| U9C U34C G40A C46U | 0.01 |
| U9G A11U C13A | 0.01 |
| U9G A25C G33C U43A | 0.19 |
| U9G A12U A24G G33U U38C C45A | 0.01 |
| U9G A14C C31U | 0.01 |
| U9G A12U G35A | 0.09 |
| U9G A11U A12G A16G G27C C37U | 0.04 |
| U9G C31G G36U | 0.03 |
| U9G A12C U28C G36C | 0.02 |
| U9G A14C C18A G35C A39G A41U | 0.02 |
| U9G C18A G35U C45G | 0.03 |
| U9G C15A G21U | 0.01 |
| U9G A26C U28C | 0.04 |
| U9G C15A A26U G35A | 0.1 |

| Variant | self-cleavage |
| --- | --- |
| U9G A12U G22C C31A U38A | 0.01 |
| U9C U20G G22U C23U | 0 |
| U9G C10U A26C G36U C37U | 0.01 |
| U9G C31G U43A | 0.07 |
| U9G C10A G27A U34A C42G U43G | 0.01 |
| U9G A25G G27C U38C | 0.01 |
| U9G A12U G29C G30U C37G | 0.02 |
| U9C U20A G30C | 0.01 |
| U9G C13G A25C A26U G27C C31A C37A G40A | 0.02 |
| U9G A25C G35U | 0.02 |
| U9G A12C C13G C15U | 0.02 |
| U9G C15U U20A G27U G33C | 0.14 |
| U9G C13U G29U U38A | 0.02 |
| U9C G40A A41U | 0.06 |
| U9G A16G G19C G21A | 0.03 |
| U9G C10U C23U A24U G36C | 0.02 |
| U9G C23G C45U | 0.08 |
| U9G C15U G19C U28A G36U U38G | 0.01 |
| U9G C15G G30A U38G | 0 |
| U9C U20G G27C G36A C37A U38G | 0 |
| U9G C15U G30C U38C | 0.01 |
| U9C G36A G40U | 0.12 |
| U9C U20C A24U G40C | 0.02 |
| U9G A25U G27C G30U C45A | 0.01 |

| Variant | self-cleavage |
| --- | --- |
| U9C G35U C37G | 0.06 |
| U9G C10G U20A U28G | 0.01 |
| U9G C10G U28C | 0.04 |
| U9G A12U A25U | 0.12 |
| U9G C15U G40A | 0.19 |
| U9G C15G G22C G36C | 0.02 |
| U9G C18A G19C | 0.04 |
| U9G A12C A39G | 0 |
| U9G A41C C42U C45U | 0.12 |
| U9G A14G G40U | 0.18 |
| U9G A11G A26G C42U | 0 |
| U9C G36A C42A | 0 |
| U9G A39G A41G C46A | 0 |
| U9C U20C C46A | 0.02 |
| U9G C23G A24G G30A U34G | 0.17 |
| U9G A12C U20A G22U C37U U43G | 0 |
| U9G A14U G22A A25C G35C C42U U43A | 0.01 |
| U9G A14U G19A U43A | 0.01 |
| U9G C10A U43G G44U | 0 |
| U9G A14C C15U A41U | 0.04 |
| U9G A24C G27C G36C | 0.06 |
| U9C G33A G35C U38G | 0.03 |
| U9C G30U G40U C46G | 0.05 |
| U9G A14C A25U | 0.01 |

| Variant | self-cleavage |
| --- | --- |
| U9G A16U G19A U20G G33A G44C | 0.03 |
| U9C U32C C45G | 0 |
| U9G A12U G17A C46A | 0.07 |
| U9G C10G C13U C15U G36C G44U C45G | 0 |
| U9C U28G U38A | 0 |
| U9G C31A C42U C45A | 0.02 |
| U9G A14G G22C | 0.1 |
| U9G C23U U38A U43A | 0.01 |
| U9G C10G U34C | 0.04 |
| U9G C13A G19C | 0 |
| U9G A24G C37A C45G | 0.12 |
| U9G C15U G21A G22U G44C | 0.05 |
| U9G C15A U28C C42A | 0.04 |
| U9C U20A G33U C46A | 0.05 |
| U9C U32G C37U | 0.03 |
| U9C U32G C37G | 0 |
| U9C G36U G40C | 0.04 |
| U9G A24U G44U | 0.05 |
| U9C U20C G33A C42U | 0.02 |
| U9G A26G A41C C42G | 0 |
| U9G A11C U20A | 0.01 |
| U9G A12C C15A C31A | 0 |
| U9G A14G C37U | 0.06 |
| U9G A11C A39G | 0 |

| Variant | self-cleavage |
| --- | --- |
| U9G C10G G21U C42U | 0.01 |
| U9G A24G G44A | 0.03 |
| U9G C10U G22U G29A U38C | 0.04 |
| U9G C10A C15A G19A | 0.03 |
| U9G C10G A11U A16G A39G G44A | 0.01 |
| U9G C13G G44A | 0.01 |
| U9G A16G G36A | 0.02 |
| U9G C13G G21U C23A G30A | 0.68 |
| U9G A12G A14G | 0.05 |
| U9G A11G C13U U20C G27U | 0 |
| U9G C23A C42A C46A | 0.27 |
| U9C G33A A39U | 0.02 |
| U9G A12G G29U | 0.01 |
| U9G C18U A26U G27U G36U | 0.14 |
| U9C U20A C23G | 0.02 |
| U9G C10U C23A G40C C46U | 0 |
| U9G A14U C15U U32C | 0.11 |
| U9C G33A C45G | 0.01 |
| U9C G33A U34G | 0.02 |
| U9G C10A C13A C18U | 0 |
| U9G C10A G33A | 0 |
| U9G C13U C37U U43A | 0.01 |
| U9G C15U A24U A25G G30A C45U | 0.02 |
| U9G A16U G33A A39C U43C | 0.03 |

| Variant | self-cleavage |
| --- | --- |
| U9G C31A C45A | 0.03 |
| U9G A16C G22U A39C | 0.02 |
| U9G C10U C13G U38G G44C | 0.02 |
| U9G A12U A16C G21A A24G | 0 |
| U9G C18G A26U G27C | 0.07 |
| U9G C10G U32G | 0.02 |
| U9G C23A G40U C42G | 0.04 |
| U9G C10A C13U C15A A24G G30C | 0.02 |
| U9G A12U C23G G40A | 0.01 |
| U9G C13G A24U G36A | 0.27 |
| U9G C15U A26U | 0.16 |
| U9G A14G A25C | 0.07 |
| U9G C13A A25C G36A | 0.46 |
| U9G A25C A39U C46G | 0.02 |
| U9C G35C C37U A39U | 0.01 |
| U9G C15U C18A G27C A41U | 0.05 |
| U9G C10A A11G A39U G40C | 0.01 |
| U9G A12G A25U U28C C31G | 0.02 |
| U9G A39G G40U C45U | 0.08 |
| U9G A12C C15U C37G | 0.01 |
| U9G C13G A16C G29C | 0.03 |
| U9G C23U A39G | 0.04 |
| U9G C15U U38G | 0.01 |
